This note sets out measurements from patent publication US20040157314A1 (PHAGETECH, published 2004).

The experiment addresses T1, STAAU_R12 (S. aureus RNA polymerase primary sigma factor), native protein of S. aureus RN4220 (Staphylococcus aureus, UniProt P0A0I8 1-368).
T1 construct: also called PT46; sigma SA
The experiment in a line: affinity chromatography of S. aureus lysate on GST cross-linked to Affigel 10, SDS-PAGE silver stain.

B1: GST (other)
chain: not shown
notes: also called GST control
For the molecule B1, the binding result is reported as “no binding”.
